In the supplement of paper PMC4604168 (melanoma cell lines):
This is one part of the list. Single values are uncertain, as repeats are few or missing.
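Note: cells treated in 1,536-well plates, then fixed and DAPI-stained, with nuclei counted from automated high-throughput microscope images.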

What follows are compounds tested on C32 (assay: cell count relative to DMSO control; melanoma cells; higher = more viable cells). Details: library dose: standard library concentration; 72 h.
`O=C(CCCCCCC(=O)Nc1ccccc1)NO` [vorinostat] + CC1(C)NC(=O)N(c2ccc([N+](=O)[O-])c(C(F)(F)F)c2)C1=O [nilutamide] (first compound 0.4 µM, partner dose 5 µM) gave a cell count of 98%. Compound `COCC[n+]1c2c(n(Cc3cnccn3)c1C)C(=O)c1ccccc1C2=O` + CC(C)(C)c1cnc(CSc2cnc(NC(=O)C3CCNCC3)s2)o1 [SNS-032] (first compound 0.002 µM, partner dose 0.05 µM) has a cell count of 71.7%. With `C#Cc1cccc(Nc2ncnc3cc(OCCOC)c(OCCOC)cc23)c1` [erlotinib] + CO[C@@H]1[C@H](N(C)C(=O)c2ccccc2)C[C@H]2O[C@]1(C)n1c3ccccc3c3c4c(c5c6ccccc6n2c5c31)C(=O)NC4 [Midostaurin] (first compound 4 µM, partner dose 0.4 µM) the cell count was 74.3%. For `Clc1ccc(Nc2nnc(Cc3ccncc3)c3ccccc23)cc1` [vatalanib] + O=C(Nc1cccc(Cl)c1)Nc1ncc(CCNc2ncnc3ccsc23)s1 [SNS314] (first compound 10 µM, partner dose 0.004 µM), the cell count was 80.9%. `COCC[n+]1c2c(n(Cc3cnccn3)c1C)C(=O)c1ccccc1C2=O` + C[C@@H]1CCN(C(=O)CC#N)C[C@@H]1N(C)c1ncnc2[nH]ccc12 [CP690550] (first compound 0.002 µM, partner dose 5 µM) was tested, and the cell count was 97.8%. Work on `Cn1c(Nc2ccc(C(F)(F)F)cc2)nc2cc(Oc3ccnc(-c4ncc(C(F)(F)F)[nH]4)c3)ccc21` + CC1(C)NC(=O)N(c2ccc([N+](=O)[O-])c(C(F)(F)F)c2)C1=O [nilutamide] (first compound 0.4 µM, partner dose 5 µM) yielded a cell count of 53.7%. `COCC[n+]1c2c(n(Cc3cnccn3)c1C)C(=O)c1ccccc1C2=O` + NC(=O)Nc1cc(-c2cccc(F)c2)sc1C(=O)N[C@H]1CCCNC1 [AZD7762] (first compound 0.002 µM, partner dose 0.1 µM) gave a cell count of 59.6%. `C#Cc1cccc(Nc2ncnc3cc(OCCOC)c(OCCOC)cc23)c1` [erlotinib] + CN(C)S(=O)(=O)c1ccc2c(c1)/C(=C/c1cc3c([nH]1)CCCC3)C(=O)N2 [SU6656] (first compound 4 µM, partner dose 2 µM) was tested, and the cell count was 85.4%. `Cn1c(Nc2ccc(C(F)(F)F)cc2)nc2cc(Oc3ccnc(-c4ncc(C(F)(F)F)[nH]4)c3)ccc21` + COc1cc2c(Oc3ccc4[nH]c(C)cc4c3F)ncnc2cc1OCCCN1CCCC1 [cediranib] (first compound 0.4 µM, partner dose 2 µM) gave a cell count of 61.2%. Compound `Clc1ccc(Nc2nnc(Cc3ccncc3)c3ccccc23)cc1` [vatalanib] + Cc1ccc(NC(=O)c2cccc(N(C)C)c2)cc1NC(=O)c1ccc(O)cc1 [ZM336372] (first compound 10 µM, partner dose 10 µM) has a cell count of 104%. `Cn1c(Nc2ccc(C(F)(F)F)cc2)nc2cc(Oc3ccnc(-c4ncc(C(F)(F)F)[nH]4)c3)ccc21` + CC(C)(C)c1cnc(CSc2cnc(NC(=O)C3CCNCC3)s2)o1 [SNS-032] (first compound 0.4 µM, partner dose 0.05 µM) gave a cell count of 46.4%. Work on `C#Cc1cccc(Nc2ncnc3cc(OCCOC)c(OCCOC)cc23)c1` [erlotinib] + COc1cc(Nc2ncc(F)c(Nc3ccc4c(n3)NC(=O)C(C)(C)O4)n2)cc(OC)c1OC [Tamatinib] (first compound 4 µM, partner dose 2 µM) yielded a cell count of 91.6%. `Cn1c(Nc2ccc(C(F)(F)F)cc2)nc2cc(Oc3ccnc(-c4ncc(C(F)(F)F)[nH]4)c3)ccc21` + C[C@]1(c2nc3c(C(N)=O)cccc3[nH]2)CCCN1 [Veliparib] (first compound 0.4 µM, partner dose 7 µM) gave a cell count of 57.6%. `COCC[n+]1c2c(n(Cc3cnccn3)c1C)C(=O)c1ccccc1C2=O` + CC1(C)NC(=O)N(c2ccc([N+](=O)[O-])c(C(F)(F)F)c2)C1=O [nilutamide] (first compound 0.002 µM, partner dose 5 µM) was tested, and the cell count was 92.4%. `O=C(CCCCCCC(=O)Nc1ccccc1)NO` [vorinostat] + CO[C@@H]1[C@H](N(C)C(=O)c2ccccc2)C[C@H]2O[C@]1(C)n1c3ccccc3c3c4c(c5c6ccccc6n2c5c31)C(=O)NC4 [Midostaurin] (first compound 0.4 µM, partner dose 0.4 µM) showed a cell count of 67.2%. Compound `Clc1ccc(Nc2nnc(Cc3ccncc3)c3ccccc23)cc1` [vatalanib] + C=CCn1c(=O)c2cnc(Nc3ccc(N4CCN(C)CC4)cc3)nc2n1-c1cccc(C(C)(C)O)n1 [MK1775] (first compound 10 µM, partner dose 0.1 µM) has a cell count of 103%. For `OCc1c[nH]c2ccccc12` [Indole-3-carbinol] + OCCn1cc(-c2cnc3nnn(Cc4ccc5ncccc5c4)c3n2)cn1 [PF04217903] (first compound 4 µM, partner dose 5 µM), the cell count was 114%. For `COCC[n+]1c2c(n(Cc3cnccn3)c1C)C(=O)c1ccccc1C2=O` + Cn1nnc2c(C(N)=O)ncn2c1=O [temozolomide] (first compound 0.002 µM, partner dose 10 µM), the cell count was 98.4%. In the case of `OCc1c[nH]c2ccccc12` [Indole-3-carbinol] + O=C(O)c1ccc(-c2c[nH]c3ncc(-c4ccccc4)cc23)cc1C1CCCC1 [GSK650394] (first compound 4 µM, partner dose 0.8 µM), the cell count is reported as 76.4%. `COCC[n+]1c2c(n(Cc3cnccn3)c1C)C(=O)c1ccccc1C2=O` + O=C(Nc1cccc(Cl)c1)Nc1ncc(CCNc2ncnc3ccsc23)s1 [SNS314] (first compound 0.002 µM, partner dose 0.004 µM) was tested, and the cell count was 79.6%. With `C#Cc1cccc(Nc2ncnc3cc(OCCOC)c(OCCOC)cc23)c1` [erlotinib] + Nc1cccc2c1CN(C1CCC(=O)NC1=O)C2=O [lenalidomide] (first compound 4 µM, partner dose 5 µM) the cell count was 97.3%. `O=C(CCCCCCC(=O)Nc1ccccc1)NO` [vorinostat] + OCCn1cc(-c2cnc3nnn(Cc4ccc5ncccc5c4)c3n2)cn1 [PF04217903] (first compound 0.4 µM, partner dose 5 µM) showed a cell count of 96.9%. `Nc1cccc2c1CN(C1CCC(=O)NC1=O)C2=O` (stereo not drawn) [lenalidomide] + OCCn1cc(-c2cnc3nnn(Cc4ccc5ncccc5c4)c3n2)cn1 [PF04217903] (first compound 5 µM, partner dose 5 µM) showed a cell count of 91.9%. `C#Cc1cccc(Nc2ncnc3cc(OCCOC)c(OCCOC)cc23)c1` [erlotinib] + C=CCn1c(=O)c2cnc(Nc3ccc(N4CCN(C)CC4)cc3)nc2n1-c1cccc(C(C)(C)O)n1 [MK1775] (first compound 4 µM, partner dose 0.1 µM) was tested, and the cell count was 81.7%. `COCC[n+]1c2c(n(Cc3cnccn3)c1C)C(=O)c1ccccc1C2=O` + O=C(O)c1ccc(-c2c[nH]c3ncc(-c4ccccc4)cc23)cc1C1CCCC1 [GSK650394] (first compound 0.002 µM, partner dose 0.8 µM) showed a cell count of 93.1%. `OCc1c[nH]c2ccccc12` [Indole-3-carbinol] + NC(=O)Nc1cc(-c2cccc(F)c2)sc1C(=O)N[C@H]1CCCNC1 [AZD7762] (first compound 4 µM, partner dose 0.1 µM) was tested, and the cell count was 66.2%. For `Clc1ccc(Nc2nnc(Cc3ccncc3)c3ccccc23)cc1` [vatalanib] + Cn1nnc2c(C(N)=O)ncn2c1=O [temozolomide] (first compound 10 µM, partner dose 10 µM), the cell count was 90.9%. `Nc1cccc2c1CN(C1CCC(=O)NC1=O)C2=O` (stereo not drawn) [lenalidomide] + C[C@]1(c2nc3c(C(N)=O)cccc3[nH]2)CCCN1 [Veliparib] (first compound 5 µM, partner dose 7 µM) gave a cell count of 111%.
